The source gives no read counts; variants with many changes may rest on few reads.
B1: LINE1-mini (parent)
chain: GGCAGAGCUCAACACAGCGUGGCAAAGUGGCUGUGGCUAGACUGCC

Variants of: B1
Assay: self-cleavage, relative activity (ratio to wild type); higher = more cleavage; in vitro, sequencing; the parent is a self-cleaving ribozyme

Variant	self-cleavage
GGCAGAGCUCAACACAACGUGUCAAAAUGGCUGUGGCUAGACUGCU	0.37
GGCAGAGCUCAACACAGCGUCGCAUAGUGGCUGUGGCUAGACCUCC	0.08
GGCAGAGCUCAACACAGGGUGGCAACGUGGCUGUGACUAGACUGCC	0.06
GGCAGAGCUCAACUCAGCUUGGCAAAGUGGCUGUGCCUAGACUGCC	0.05
GGCAGCGCUCAACACAGAUUGGUAAAGUGGCUGUGGCUAGACUGCC	1.69
AGCAGAGUUCAACACAGCGUGGCAAAGUGGCUGUGGCUGGACUGCC	0.06
GGCAGUGACCAACACAGCGUGGCAAAAUGGCUGUGGCUAUACUGCC	0.25
GGCAGAGCUCAACACAGCGCGGCAUAGUGGCUGUGACUAGACUGCC	0.21
GGCAGAGCUCAACACAGUGUGGCAAAGUUGCUGUGGGUAGUCUUCC	0.01
GGCAGGGCUUAACACAGAGUUGCAAAGUGGCUGUAGCUAGACAGCC	0.02
GACAGUGCUCAACACAGCGAGGCAAAGUGGCUGUGGCUAUACUGCC	0.09
GGCAGAGCUCAACACAGCGUGGCAAAGUGGCUGUCGCCAGACUGUC	0.02
GGCAGAUCUCAAGACAGAGUGGCAAUGUGGCUGUAGCAAGUCUGCU	0.03
GGCAGGGGUCAACACACCGCGGCAAAGUGGCUGUGGCUAGACUUCC	0.01
GGCAGAGCUCAACACAGUGUGGCAAAGUGGCUGUGGAUAGACUACC	0.04
GGCAGAGCUCAAGACAGCGUGGCAAAGUGGCUCUGCCUAGACUGCC	0.05
GGCAGAGUUAAACACAGCGUGGCAAAGUGGCUGUGGCUAGGCUGCC	0.03
GGCAGAACUCAACAUAGCGUGGCAAAGGCGCUGUGGCUAGACUGCC	0.07
GGCAGUGCUCAACACAUCGUGGCAAAGUAACUGUGGCUAGACUGCC	1.6

Variant	self-cleavage
GGCAGAGUUCAACACAGCGUGCCAAAGUGGCCGUGGCUAAACAGCC	0.08
GGCAGAGCUCUACACAGCUUGGCAAAGUGGCUCUGGCUAGACUGCC	0.02
GUCAGAGCUCAACACAGCGUGUCAAAGUGGCUGUUGCUCGACUGCC	0.1
GUCAGAGUUCCACACACCGUGGCACAGUAGCUGUGCCUAAACUGCC	0
GGCAGAGCUCCACACAGCGUGGCAAAGUGGCUGUGGCUAGACAGGC	0.01
GGCAGAGCUCAACAAAGCGUGGCAAAGUGGCUGGGACUAGACUGCA	0.06
GGCCGAGCUCAACACAGUGUGGCAAAGUGGCUGUCGCUAGACUGCC	0.06
GGUAUAGCCCAACACAGCGUGGCAAAGUGGCUAUAGCUCGACUGCC	0.01
GGCAGAGCUCAACACCCCGUGGCAAAUUGGAUGAGGCUAGACUGCC	0.02
UGGAGAGCUCAACACAGCGUGGCAACGUGGCUGUGGCUAGACUGCC	0.09
GGCAGAGCUCAUAACAGCGUGGCAAAGUGGCUGUGGCUAGACUACC	0.05
GGCAGAUCUCAUCACAGCGUGUCAAAGGGGCUGCGGCUAGACUGGC	0.08
GGCAGAGCUCAACACAUCGCGGCAGAGUGGCUGUGGCUAGACUGCC	0.25
GGCGGAGUUCAACACAGAGUAGAAAAGUGGCUGUGGCUAGACUGCC	0.03
GGCAGACCUCAACACCGCGUGGCAAAGUGGCUGUUGCUAGACUGCC	0.03
GGCAGAGCUCAACACAGCUUGGCAAAGUGGCUGUGGUUAACCUGCC	0.01
GGCAAAGCUCAACAAAGCGUGGCAAAGGGGCUGUGGCUAGACUGUC	0.02
GGCAUAGCUCAAGACAGCAUGGCAAAGUGGCUGUGGCUGGACUGCC	0.26
GGCAGACCUUAACACAGCGUGGCAGACUGGCUGUGGCUAGACUGCC	0.02

Variant	self-cleavage
GGCAGAGCUCAACUCAGCGUGGCAGAGUGGCUGUGGCUACACUGCC	0.03
GGCAGAGUUCAACACAGCGUGGCAAAGGGUCUGUGACUAGACUGCC	1.33
CGCAGAGCUCAACACAGCGUGGCAAAGUGGCUCAGGCUCGACUACC	0.01
GGCAGAGCUCAACACAGCGUGUCAAAGUGGCUGUGGCUAAACUCCC	0.17
GGCAGAGCUCAACACAACUUGGCAAAGUGACUGUACCUAGACUGAG	0
GGCAGAGCUCUACACGUCGUGGCAAAGUGGCUGUGGCUAGACUGCC	0.02
GGCAGAGAUCCACACAGCGUGGCAAAGUGGCUGUGGCUAGACUGUC	0.03
GGCAGAGAUCAACAAAGCGUGGCAAAGUGGCUGUGGCUAAACUGCC	0.14
GACAGAGCUCAACACACCGUGGGAAAGUAGCUGUGGCUAGACUGUC	0.2
GGCAGCGCUCAAAACAGCGUGGCAAAGUGUCUGUGGCUAGACUGCC	0.09
GGCAGGGCUCACCAUUCCGUGGCAAAGUGGCUGUGGCUAGACUGCC	0.03
GGCAGAGCUCAACGCAGCUUGGCAAAGUGGCUGUGGCUAGACGGCC	0.12
AGCAAAGCUCAACACCGCGUGGCAAAGUGGCUGUGGCUAGACUGCC	0.14
GGCAGAGCUGAACACAGCGUCGCAAAGUGCCUGUGGCUAGACUGCC	0.09
GGCUGAGCUCAACACAGCGUGGCAAAGUGGCUGUCGGUCGACUGCC	0.14
GGCAGAGCUCCAUACAGCGUGGCAAAGUGGCUGUGCCUAUACUGCC	0.04
GGCAGAGCUCAACACAGCGUGGCAAAGUGGCCGUGGCUGGACUGUG	0.04
GGCAGAGCUUAACACAGCGAGGCACAGUGGCUGUGGCUAGACUGCC	0.16
